# Experimental data as given in PMC9911399, “Two distinct binding modes provide the RNA-binding protein RbFox with extraordinary sequence specificity”.
# Numbering of substitutions follows the chain as printed; changes in the protein carry UniProt numbers. This is one part of the list.
# T1: RBFOX1 RRM (Homo sapiens, UniProt Q9NWB1 109-208)
# T1 sequence: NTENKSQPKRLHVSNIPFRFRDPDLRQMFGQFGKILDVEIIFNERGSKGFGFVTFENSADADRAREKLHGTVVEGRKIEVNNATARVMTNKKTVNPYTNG
# B1: CUUCCCG (DNA:RNA)
# RNA: GGGAGACCGGAAUUCAGAUUGUCCCUUCCCGUUAAAUCCCGUCGUAGCCACCA
# DNA 1: CAATCTGAATTCCGGTCTCCC
# DNA 2: TGGTGGCTACGACGGGATT
# B2: UCGGGGC (DNA:RNA)
# RNA: GGGAGACCGGAAUUCAGAUUGUCCUCGGGGCUUAAAUCCCGUCGUAGCCACCA
# DNA 1: CAATCTGAATTCCGGTCTCCC
# DNA 2: TGGTGGCTACGACGGGATT
# B3: CGGGUGC (DNA:RNA)
# RNA: B2 RNA with U25C, C26G, G29U
# DNA 1: CAATCTGAATTCCGGTCTCCC
# DNA 2: TGGTGGCTACGACGGGATT
# B4: ACGUCGU (DNA:RNA)
# RNA: B2 RNA with U25A, G28U, G29C, C31U
# DNA 1: CAATCTGAATTCCGGTCTCCC
# DNA 2: TGGTGGCTACGACGGGATT
# B5: ACCACUG (DNA:RNA)
# RNA: B1 RNA with C25A, U26C, U27C, C28A, C30U
# DNA 1: CAATCTGAATTCCGGTCTCCC
# DNA 2: TGGTGGCTACGACGGGATT
# B6: UGUCGAG (DNA:RNA)
# RNA: B1 RNA with C25U, U26G, C29G, C30A
# DNA 1: CAATCTGAATTCCGGTCTCCC
# DNA 2: TGGTGGCTACGACGGGATT
# B7: GCCUCCA (DNA:RNA)
# RNA: B1 RNA with C25G, U26C, U27C, C28U, G31A
# DNA 1: CAATCTGAATTCCGGTCTCCC
# DNA 2: TGGTGGCTACGACGGGATT
# B8: AGGCGAG (DNA:RNA)
# RNA: B1 RNA with C25A, U26G, U27G, C29G, C30A
# DNA 1: CAATCTGAATTCCGGTCTCCC
# DNA 2: TGGTGGCTACGACGGGATT
# B9: UACGAGC (DNA:RNA)
# RNA: B2 RNA with C26A, G27C, G29A
# DNA 1: CAATCTGAATTCCGGTCTCCC
# DNA 2: TGGTGGCTACGACGGGATT
# B10: AGGUGUC (DNA:RNA)
# RNA: B2 RNA with U25A, C26G, G28U, G30U
# DNA 1: CAATCTGAATTCCGGTCTCCC
# DNA 2: TGGTGGCTACGACGGGATT
# B11: ACGUCAG (DNA:RNA)
# RNA: B1 RNA with C25A, U26C, U27G, C28U, C30A
# DNA 1: CAATCTGAATTCCGGTCTCCC
# DNA 2: TGGTGGCTACGACGGGATT
# B12: AAAGCUG (DNA:RNA)
# RNA: B1 RNA with C25A, U26A, U27A, C28G, C30U
# DNA 1: CAATCTGAATTCCGGTCTCCC
# DNA 2: TGGTGGCTACGACGGGATT
# B13: UUUGUCG (DNA:RNA)
# RNA: B1 RNA with C25U, C28G, C29U
# DNA 1: CAATCTGAATTCCGGTCTCCC
# DNA 2: TGGTGGCTACGACGGGATT
# B14: CUUGUGA (DNA:RNA)
# RNA: B1 RNA with C28G, C29U, C30G, G31A
# DNA 1: CAATCTGAATTCCGGTCTCCC
# DNA 2: TGGTGGCTACGACGGGATT
# B15: UUUGAUU (DNA:RNA)
# RNA: B1 RNA with C25U, C28G, C29A, C30U, G31U
# DNA 1: CAATCTGAATTCCGGTCTCCC
# DNA 2: TGGTGGCTACGACGGGATT
# B16: CGGCUGG (DNA:RNA)
# RNA: B1 RNA with U26G, U27G, C29U, C30G
# DNA 1: CAATCTGAATTCCGGTCTCCC
# DNA 2: TGGTGGCTACGACGGGATT
# B17: AUCCUUU (DNA:RNA)
# RNA: B1 RNA with C25A, U27C, C29U, C30U, G31U
# DNA 1: CAATCTGAATTCCGGTCTCCC
# DNA 2: TGGTGGCTACGACGGGATT
# B18: GGAGUAU (DNA:RNA)
# RNA: B2 RNA with U25G, C26G, G27A, G29U, G30A, C31U
# DNA 1: CAATCTGAATTCCGGTCTCCC
# DNA 2: TGGTGGCTACGACGGGATT
# B19: CACGGUU (DNA:RNA)
# RNA: B2 RNA with U25C, C26A, G27C, G30U, C31U
# DNA 1: CAATCTGAATTCCGGTCTCCC
# DNA 2: TGGTGGCTACGACGGGATT
# B20: AGAUUAG (DNA:RNA)
# RNA: B1 RNA with C25A, U26G, U27A, C28U, C29U, C30A
# DNA 1: CAATCTGAATTCCGGTCTCCC
# DNA 2: TGGTGGCTACGACGGGATT
# B21: AAACCAG (DNA:RNA)
# RNA: B1 RNA with C25A, U26A, U27A, C30A
# DNA 1: CAATCTGAATTCCGGTCTCCC
# DNA 2: TGGTGGCTACGACGGGATT
# B22: UACUAGU (DNA:RNA)
# RNA: B2 RNA with C26A, G27C, G28U, G29A, C31U
# DNA 1: CAATCTGAATTCCGGTCTCCC
# DNA 2: TGGTGGCTACGACGGGATT
# B23: GGGACGU (DNA:RNA)
# RNA: B2 RNA with U25G, C26G, G28A, G29C, C31U
# DNA 1: CAATCTGAATTCCGGTCTCCC
# DNA 2: TGGTGGCTACGACGGGATT
# B24: CCUCACU (DNA:RNA)
# RNA: B1 RNA with U26C, C29A, G31U
# DNA 1: CAATCTGAATTCCGGTCTCCC
# DNA 2: TGGTGGCTACGACGGGATT
# B25: GCCACCA (DNA:RNA)
# RNA: B1 RNA with C25G, U26C, U27C, C28A, G31A
# DNA 1: CAATCTGAATTCCGGTCTCCC
# DNA 2: TGGTGGCTACGACGGGATT
# B26: UGAUUAG (DNA:RNA)
# RNA: B1 RNA with C25U, U26G, U27A, C28U, C29U, C30A
# DNA 1: CAATCTGAATTCCGGTCTCCC
# DNA 2: TGGTGGCTACGACGGGATT
# B27: CGUUGGU (DNA:RNA)
# RNA: B1 RNA with U26G, C28U, C29G, C30G, G31U
# DNA 1: CAATCTGAATTCCGGTCTCCC
# DNA 2: TGGTGGCTACGACGGGATT
# B28: GGGUAUA (DNA:RNA)
# RNA: B2 RNA with U25G, C26G, G28U, G29A, G30U, C31A
# DNA 1: CAATCTGAATTCCGGTCTCCC
# DNA 2: TGGTGGCTACGACGGGATT
# B29: UCAGCCC (DNA:RNA)
# RNA: B2 RNA with G27A, G29C, G30C
# DNA 1: CAATCTGAATTCCGGTCTCCC
# DNA 2: TGGTGGCTACGACGGGATT
# B30: AGCUCUU (DNA:RNA)
# RNA: B1 RNA with C25A, U26G, U27C, C28U, C30U, G31U
# DNA 1: CAATCTGAATTCCGGTCTCCC
# DNA 2: TGGTGGCTACGACGGGATT
# B31: CAGGGAA (DNA:RNA)
# RNA: B2 RNA with U25C, C26A, G30A, C31A
# DNA 1: CAATCTGAATTCCGGTCTCCC
# DNA 2: TGGTGGCTACGACGGGATT
# Target: T1, RBFOX1 RRM
# Experiment: EMSA; HiTS-Eq, 1 nM pool, 10 min; buffer printed only for the single-RNA assays: 10 mM Tris pH 7.5, 150 mM NaCl, 3.4 mM EDTA, 0.001% NP-40, 30 C
# Details: tags: His6 N-terminal (pET28a); label: 5' 32P
# Outline: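 Purified wild-type or mutant RbFox RRM at increasing concentrations was equilibrated with 1 nM of 5′-radiolabelled RNA carrying 7 randomized nucleotides for 10 min in 50 µL. Unbound RNA was separated by 8% native PAGE and sequenced. Relative association constants came from read-count changes of each RNA species compared with the control reaction, normalised to the cognate motif.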
row,Binder,binding signal
1,B1,0.00669 KA relative to UGCAUGU
2,B2,0.00877 KA relative to UGCAUGU
3,B3,0.0369 KA relative to UGCAUGU
4,B4,0.00803 KA relative to UGCAUGU
5,B5,0.00176 KA relative to UGCAUGU
6,B6,0.0245 KA relative to UGCAUGU
7,B7,0.000745 KA relative to UGCAUGU
8,B8,0.0117 KA relative to UGCAUGU
9,B9,0.0114 KA relative to UGCAUGU
10,B10,0.0213 KA relative to UGCAUGU
11,B11,0.00726 KA relative to UGCAUGU
12,B12,0.0111 KA relative to UGCAUGU
13,B13,0.0272 KA relative to UGCAUGU
14,B14,0.0141 KA relative to UGCAUGU
15,B15,0.0204 KA relative to UGCAUGU
16,B16,0.0236 KA relative to UGCAUGU

row,Binder,binding signal
1,B17,0.00558 KA relative to UGCAUGU
2,B18,0.0136 KA relative to UGCAUGU
3,B19,0.0077 KA relative to UGCAUGU
4,B20,0.00902 KA relative to UGCAUGU
5,B21,0.000872 KA relative to UGCAUGU
6,B22,0.0124 KA relative to UGCAUGU
7,B23,0.0238 KA relative to UGCAUGU
8,B24,0.00295 KA relative to UGCAUGU
9,B25,0.00242 KA relative to UGCAUGU
10,B26,0.0207 KA relative to UGCAUGU
11,B27,0.0227 KA relative to UGCAUGU
12,B28,0.00754 KA relative to UGCAUGU
13,B29,0.00419 KA relative to UGCAUGU
14,B30,0.00692 KA relative to UGCAUGU
15,B31,0.00897 KA relative to UGCAUGU
